Consider nine variants from the supplement of paper PMC12217912.

The labels stand for the following.
B1: TEV protease; numbered along this chain (parent)
chain: MGESLFKGPRDYNPISSSICHLTNESDGHTTSLYGIGFGPFIITNKHLFRRNNGTLVVQSLHGVFKVKDTTTLQQHLVDGRDMIIIRMPKDFPPFPQKLKFREPQREERICLVTTNFQTKSMSSMVSDTSCTFPSGDGIFWKHWIQTKDGQCGSPLVSTRDGFIVGIHSASNFTNTNNYFTSVPKNFMELLTNQEAQQWVSGWRLNADSVLWGGHKVFMVKPEEPFQPVKEATQL

In the test the parent is B1. The experiment in a line: raw area under fraction-flipped curve 0-4 h after induction (AUC4h, not background-subtracted), DNA-recorder readout of cleavage of the substrate (dimensionless); higher = more cleavage of the substrate by the protease variant. The settings on record: temperature: 34 °C; time window: 0-4 h after rhamnose induction. The method, then: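 In vivo DNA recorder in E. coli TOP10(DE3) ΔrhaA at 34 °C. Each TEVp single-site mutant (parent TEVp 0) is paired with a single-site variant of the 7-mer TEVs (canonical ENLYFQ|S). The substrate sits between flexible linkers in a Bxb1-sfGFP-TEVs-SsrA fusion, so cleavage stabilises Bxb1 and speeds flipping of a recombination array, read by NGS. The value is the raw area under the fraction-flipped curve over 0-4 h after rhamnose induction (AUC4h), with ≥20 reads per time point. It is not background-subtracted; inactive controls average about 0.047.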

Some of the results follow. Sequences were assembled here from the parent chain. Values near 0.05 are background.
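Also: Bxb1 expression induced with 0.2% (w/v) L-rhamnose at OD600 near 0.5, cultures sampled hourly, flipped fraction per protease–substrate barcode pair counted by paired-end Illumina sequencing.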

Turning to MGESLFKGPRDYDPISSSICHLTNESDGHTTSLYGIGFGPFIITNKHLFRRNNGTLVVQSLHGVFKVKDTTTLQQHLVDGRDMIIIRMPKDFPPFPQKLKFREPQREERICLVTTNFQTKSMSSMVSDTSCTFPSGDGIFWKHWIQTKDGQCGSPLVSTRDGFIVGIHSASNFTNTNNYFTSVPKNFMELLTNQEAQQWVSGWRLNADSVLWGGHKVFMVKPEEPFQPVKEATQL [N13D], the “area with substrate ENLAFQS” value was 0.123, the “area with substrate ENLDFQS” value turned out to be 0.06, the “area with substrate ENLEFQS” value is 0.0746 and the “area with substrate ENLFFQS” value came out at 0.0784. The “area with substrate ENLGFQS” value came out at 0.0945, the “area with substrate ENLHFQS” value stood at 0.0709, the “area with substrate ENLIFQS” value is 0.0871 and the “area with substrate ENLLFQS” value came to 0.0663. The “area with substrate ENLNFQS” value is 0.0661, the “area with substrate ENLPFQS” value was determined as 0.0501, the “area with substrate ENLRFQS” value came out at 0.0679 and the “area with substrate ENLTFQS” value stood at 0.0796. Besides, the “area with substrate ENLVFQS” value is 0.0717 and the “area with substrate ENLWFQS” value is 0.0734.
Regarding MGESLFKGPRDYAPISSSICHLTNESDGHTTSLYGIGFGPFIITNKHLFRRNNGTLVVQSLHGVFKVKDTTTLQQHLVDGRDMIIIRMPKDFPPFPQKLKFREPQREERICLVTTNFQTKSMSSMVSDTSCTFPSGDGIFWKHWIQTKDGQCGSPLVSTRDGFIVGIHSASNFTNTNNYFTSVPKNFMELLTNQEAQQWVSGWRLNADSVLWGGHKVFMVKPEEPFQPVKEATQL [N13A], the “area with substrate ENLAFQS” value stood at 0.063, the “area with substrate ENLCFQS” value was 0.0747, the “area with substrate ENLDFQS” value is 0.0602 and the “area with substrate ENLEFQS” value is 0.0714. In addition, the “area with substrate ENLFFQS” value was found to be 0.0749, the “area with substrate ENLGFQS” value was found to be 0.0955, the “area with substrate ENLHFQS” value worked out at 0.0642 and the “area with substrate ENLKFQS” value turned out to be 0.0757. Moreover, the “area with substrate ENLLFQS” value is 0.0723, the “area with substrate ENLNFQS” value stood at 0.063, the “area with substrate ENLPFQS” value was 0.051 and the “area with substrate ENLQFQS” value amounted to 0.0663. Also, the “area with substrate ENLRFQS” value came out at 0.0732, the “area with substrate ENLSFQS” value turned out to be 0.0524, the “area with substrate ENLTFQS” value was determined as 0.0383 and the “area with substrate ENLWFQS” value is 0.0713.
For MGESLFQGPRDYNPISSSICHLTNESDGHTTSLYGIGFGPFIITNKHLFRRNNGTLVVQSLHGVFKVKDTTTLQQHLVDGRDMIIIRMPKDFPPFPQKLKFREPQREERICLVTTNFQTKSMSSMVSDTSCTFPSGDGIFWKHWIQTKDGQCGSPLVSTRDGFIVGIHSASNFTNTNNYFTSVPKNFMELLTNQEAQQWVSGWRLNADSVLWGGHKVFMVKPEEPFQPVKEATQL [K7Q], the “area with substrate ENLAFQS” value worked out at 0.063, the “area with substrate ENLDFQS” value amounted to 0.065, the “area with substrate ENLEFQS” value came out at 0.0552 and the “area with substrate ENLFFQS” value was 0.0892. Also, the “area with substrate ENLHFQS” value was found to be 0.0708, the “area with substrate ENLIFQS” value worked out at 0.078, the “area with substrate ENLKFQS” value is 0.0821 and the “area with substrate ENLLFQS” value amounted to 0.0775. Moreover, the “area with substrate ENLMFQS” value came out at 0.0799, the “area with substrate ENLNFQS” value was found to be 0.0667, the “area with substrate ENLPFQS” value is 0.0557 and the “area with substrate ENLSFQS” value is 0.0606. For the same variant, the “area with substrate ENLVFQS” value stood at 0.0858 and the “area with substrate ENLWFQS” value was found to be 0.208.
As to MGESLFKGPRDYNPIWSSICHLTNESDGHTTSLYGIGFGPFIITNKHLFRRNNGTLVVQSLHGVFKVKDTTTLQQHLVDGRDMIIIRMPKDFPPFPQKLKFREPQREERICLVTTNFQTKSMSSMVSDTSCTFPSGDGIFWKHWIQTKDGQCGSPLVSTRDGFIVGIHSASNFTNTNNYFTSVPKNFMELLTNQEAQQWVSGWRLNADSVLWGGHKVFMVKPEEPFQPVKEATQL [S16W], the “area with substrate ENLAFQS” value is 0.0728, the “area with substrate ENLCFQS” value came to 0.0741, the “area with substrate ENLDFQS” value came out at 0.0695 and the “area with substrate ENLEFQS” value amounted to 0.0671. The “area with substrate ENLFFQS” value was 0.0769, the “area with substrate ENLHFQS” value turned out to be 0.0635, the “area with substrate ENLIFQS” value worked out at 0.0816 and the “area with substrate ENLLFQS” value was determined as 0.0617. In addition, the “area with substrate ENLMFQS” value came out at 0.0676, the “area with substrate ENLNFQS” value is 0.0568, the “area with substrate ENLPFQS” value stood at 0.0678 and the “area with substrate ENLRFQS” value was 0.0752. Besides, the “area with substrate ENLSFQS” value is 0.055, the “area with substrate ENLTFQS” value was found to be 0.076, the “area with substrate ENLVFQS” value was 0.113 and the “area with substrate ENLWFQS” value amounted to 0.0794.
For the variant MGESLFKGPNDYNPISSSICHLTNESDGHTTSLYGIGFGPFIITNKHLFRRNNGTLVVQSLHGVFKVKDTTTLQQHLVDGRDMIIIRMPKDFPPFPQKLKFREPQREERICLVTTNFQTKSMSSMVSDTSCTFPSGDGIFWKHWIQTKDGQCGSPLVSTRDGFIVGIHSASNFTNTNNYFTSVPKNFMELLTNQEAQQWVSGWRLNADSVLWGGHKVFMVKPEEPFQPVKEATQL [R10N], the “area with substrate ENLAFQS” value came to 0.0582, the “area with substrate ENLCFQS” value came to 0.0546, the “area with substrate ENLDFQS” value was 0.0615 and the “area with substrate ENLFFQS” value was determined as 0.0791. The “area with substrate ENLHFQS” value came to 0.0564, the “area with substrate ENLKFQS” value was determined as 0.0749, the “area with substrate ENLLFQS” value came to 0.0681 and the “area with substrate ENLNFQS” value was determined as 0.0701. The “area with substrate ENLPFQS” value amounted to 0.0503, the “area with substrate ENLRFQS” value was 0.0764, the “area with substrate ENLSFQS” value was 0.0599 and the “area with substrate ENLTFQS” value worked out at 0.0936. For the same variant, the “area with substrate ENLWFQS” value was determined as 0.0802.
As to MGESLFKGPRDYNPYSSSICHLTNESDGHTTSLYGIGFGPFIITNKHLFRRNNGTLVVQSLHGVFKVKDTTTLQQHLVDGRDMIIIRMPKDFPPFPQKLKFREPQREERICLVTTNFQTKSMSSMVSDTSCTFPSGDGIFWKHWIQTKDGQCGSPLVSTRDGFIVGIHSASNFTNTNNYFTSVPKNFMELLTNQEAQQWVSGWRLNADSVLWGGHKVFMVKPEEPFQPVKEATQL [I15Y], the “area with substrate ENLAFQS” value amounted to 0.062, the “area with substrate ENLDFQS” value was found to be 0.0612, the “area with substrate ENLEFQS” value worked out at 0.0624 and the “area with substrate ENLFFQS” value came to 0.0796. Besides, the “area with substrate ENLGFQS” value was determined as 0.055, the “area with substrate ENLHFQS” value came to 0.066, the “area with substrate ENLIFQS” value was 0.0899 and the “area with substrate ENLKFQS” value was found to be 0.0783. Besides, the “area with substrate ENLMFQS” value is 0.0855, the “area with substrate ENLNFQS” value worked out at 0.0698, the “area with substrate ENLPFQS” value was determined as 0.0621 and the “area with substrate ENLQFQS” value was 0.0613. The “area with substrate ENLRFQS” value was 0.106 and the “area with substrate ENLSFQS” value amounted to 0.0603.
For the variant MGESLFKGPRDYNPWSSSICHLTNESDGHTTSLYGIGFGPFIITNKHLFRRNNGTLVVQSLHGVFKVKDTTTLQQHLVDGRDMIIIRMPKDFPPFPQKLKFREPQREERICLVTTNFQTKSMSSMVSDTSCTFPSGDGIFWKHWIQTKDGQCGSPLVSTRDGFIVGIHSASNFTNTNNYFTSVPKNFMELLTNQEAQQWVSGWRLNADSVLWGGHKVFMVKPEEPFQPVKEATQL [I15W], the “area with substrate ENLAFQS” value was determined as 0.0706, the “area with substrate ENLCFQS” value was 0.0611, the “area with substrate ENLDFQS” value was 0.0724 and the “area with substrate ENLEFQS” value worked out at 0.065. For the same variant, the “area with substrate ENLFFQS” value worked out at 0.081, the “area with substrate ENLGFQS” value came out at 0.0633, the “area with substrate ENLHFQS” value came to 0.0485 and the “area with substrate ENLIFQS” value turned out to be 0.0758. The “area with substrate ENLKFQS” value turned out to be 0.0737, the “area with substrate ENLLFQS” value amounted to 0.0731, the “area with substrate ENLNFQS” value came out at 0.0795 and the “area with substrate ENLPFQS” value amounted to 0.0577. Further, the “area with substrate ENLRFQS” value was determined as 0.0268, the “area with substrate ENLSFQS” value was 0.0755, the “area with substrate ENLVFQS” value was found to be 0.0926 and the “area with substrate ENLWFQS” value was 0.0619.
Take MGESLFKGPRDYNPASSSICHLTNESDGHTTSLYGIGFGPFIITNKHLFRRNNGTLVVQSLHGVFKVKDTTTLQQHLVDGRDMIIIRMPKDFPPFPQKLKFREPQREERICLVTTNFQTKSMSSMVSDTSCTFPSGDGIFWKHWIQTKDGQCGSPLVSTRDGFIVGIHSASNFTNTNNYFTSVPKNFMELLTNQEAQQWVSGWRLNADSVLWGGHKVFMVKPEEPFQPVKEATQL [I15A]: the “area with substrate ENLAFQS” value amounted to 0.0586, the “area with substrate ENLCFQS” value stood at 0.0527, the “area with substrate ENLDFQS” value turned out to be 0.0524 and the “area with substrate ENLEFQS” value is 0.0624. For the same variant, the “area with substrate ENLFFQS” value worked out at 0.0898, the “area with substrate ENLGFQS” value was 0.0679, the “area with substrate ENLHFQS” value stood at 0.0626 and the “area with substrate ENLIFQS” value is 0.0697. The “area with substrate ENLKFQS” value is 0.0751, the “area with substrate ENLLFQS” value was found to be 0.0731, the “area with substrate ENLMFQS” value is 0.0684 and the “area with substrate ENLNFQS” value worked out at 0.0587. Besides, the “area with substrate ENLPFQS” value turned out to be 0.0844, the “area with substrate ENLQFQS” value is 0.0717, the “area with substrate ENLRFQS” value was 0.0751 and the “area with substrate ENLSFQS” value came out at 0.0599.
In the case of MGESLFKGPRDYNRISSSICHLTNESDGHTTSLYGIGFGPFIITNKHLFRRNNGTLVVQSLHGVFKVKDTTTLQQHLVDGRDMIIIRMPKDFPPFPQKLKFREPQREERICLVTTNFQTKSMSSMVSDTSCTFPSGDGIFWKHWIQTKDGQCGSPLVSTRDGFIVGIHSASNFTNTNNYFTSVPKNFMELLTNQEAQQWVSGWRLNADSVLWGGHKVFMVKPEEPFQPVKEATQL [P14R], the “area with substrate ENLAFQS” value was 0.0285, the “area with substrate ENLDFQS” value is 0.0438, the “area with substrate ENLEFQS” value worked out at 0.0552 and the “area with substrate ENLFFQS” value was 0.0867. Moreover, the “area with substrate ENLIFQS” value amounted to 0.0859, the “area with substrate ENLKFQS” value amounted to 0.086, the “area with substrate ENLNFQS” value is 0.0746 and the “area with substrate ENLPFQS” value came to 0.0506. The “area with substrate ENLQFQS” value turned out to be 0.0637, the “area with substrate ENLRFQS” value was found to be 0.0801, the “area with substrate ENLSFQS” value stood at 0.0783 and the “area with substrate ENLVFQS” value worked out at 0.0788. Besides, the “area with substrate ENLWFQS” value was found to be 0.0476.
